The text below walks through data of paper PMC4336329 (PLoS ONE, 2015).

Molecules are shown by their SMILES. Hit rate of the full screen: of about 310,000 compounds, about 2,200 (0.71%) showed an effect of 50% or more. Effects have a minus sign here. The list shows a part of the results.

For the experiment, the target named is human ether-à-go-go-related gene (hERG) potassium channel (human, UniProt Q12809). As to the kind of experiment: primary screen, population patch clamp on CHO cells stably expressing hERG.
Sequence of human ether-à-go-go-related gene (hERG) potassium channel (Q12809 whole entry, looked up): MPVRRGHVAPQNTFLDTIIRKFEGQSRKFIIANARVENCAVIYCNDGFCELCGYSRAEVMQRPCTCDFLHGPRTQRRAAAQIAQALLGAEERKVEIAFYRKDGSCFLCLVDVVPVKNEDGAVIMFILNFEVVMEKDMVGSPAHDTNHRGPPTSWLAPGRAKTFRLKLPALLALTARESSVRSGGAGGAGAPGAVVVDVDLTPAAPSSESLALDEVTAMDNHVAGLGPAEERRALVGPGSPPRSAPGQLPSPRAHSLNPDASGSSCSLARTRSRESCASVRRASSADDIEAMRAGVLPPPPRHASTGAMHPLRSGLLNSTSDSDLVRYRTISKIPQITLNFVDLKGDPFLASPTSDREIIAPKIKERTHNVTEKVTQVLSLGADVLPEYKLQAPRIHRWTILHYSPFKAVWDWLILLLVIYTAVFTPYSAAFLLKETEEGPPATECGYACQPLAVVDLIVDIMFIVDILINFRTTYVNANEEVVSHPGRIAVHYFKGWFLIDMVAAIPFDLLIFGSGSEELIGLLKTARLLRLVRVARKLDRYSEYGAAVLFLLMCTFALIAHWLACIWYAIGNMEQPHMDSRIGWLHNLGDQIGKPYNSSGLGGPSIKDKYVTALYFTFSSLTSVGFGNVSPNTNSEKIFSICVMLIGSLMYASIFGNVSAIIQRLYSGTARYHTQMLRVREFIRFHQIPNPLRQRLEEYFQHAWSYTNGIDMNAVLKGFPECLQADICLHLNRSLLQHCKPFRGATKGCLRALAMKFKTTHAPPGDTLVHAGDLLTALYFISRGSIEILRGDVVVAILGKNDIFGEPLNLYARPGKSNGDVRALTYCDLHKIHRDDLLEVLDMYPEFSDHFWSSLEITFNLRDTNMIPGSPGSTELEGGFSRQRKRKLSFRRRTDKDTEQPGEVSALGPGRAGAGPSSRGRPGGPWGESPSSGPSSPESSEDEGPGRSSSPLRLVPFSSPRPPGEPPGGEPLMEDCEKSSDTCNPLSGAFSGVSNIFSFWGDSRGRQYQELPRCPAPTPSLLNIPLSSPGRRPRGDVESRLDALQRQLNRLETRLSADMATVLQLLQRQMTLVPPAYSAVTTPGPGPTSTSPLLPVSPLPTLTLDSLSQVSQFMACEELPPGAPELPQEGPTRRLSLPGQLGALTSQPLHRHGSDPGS
`Cc1ccc(S(=O)(=O)N(C)c2ccc(C(=O)NCC(c3ccco3)N(C)C)cc2)cc1` (centres unmarked): the “hERG current change (%, negative = inhibition) at 1uM” value is listed as 9.63%.

Consider `CC(C)(C)C1CCC(=O)N(CCSc2ccccc2)CC1` (centres unmarked), for which the “hERG current change (%, negative = inhibition) at 1uM” value was -0.131%.

In the case of `CCOC(=O)c1sc(=S)n(-c2cccc(OC)c2)c1N`, the “hERG current change (%, negative = inhibition) at 1uM” value is recorded as -10.4%.

As to `COc1ccc(-n2c(COc3cccc4ccccc34)nnc2SCC#N)cc1`, the “hERG current change (%, negative = inhibition) at 1uM” value is 2.57%.

With `CCN1CCN(c2ccc(N3CCN(S(=O)(=O)c4ccc(C)c([N+](=O)[O-])c4)CC3)nn2)CC1`, the “hERG current change (%, negative = inhibition) at 1uM” value is recorded as -12.5%.

For the molecule `CCCC(CCC)C(=O)Nc1c[nH]c(=O)[nH]c1=O`, the “hERG current change (%, negative = inhibition) at 1uM” value is listed as 8.89%.

With `N/C(Cc1ccc([N+](=O)[O-])cc1)=N\OC(=O)COc1cccc2ccccc12`, the “hERG current change (%, negative = inhibition) at 1uM” value is -1.19%.

As to `Cc1ccc(S(=O)(=O)/N=C(/c2ccc(F)cc2)N(C)C)cc1`, the “hERG current change (%, negative = inhibition) at 1uM” value stood at 12.5%.

Consider `O=C(CN1C(=O)COc2ccc(S(=O)(=O)N3CCCC3)cc21)Nc1cccc(F)c1`, for which the “hERG current change (%, negative = inhibition) at 1uM” value was 12.5%.

Consider `O=C(Nc1ccc(Cl)cc1)c1ccc(-n2cccn2)c([N+](=O)[O-])c1`, for which the “hERG current change (%, negative = inhibition) at 1uM” value stood at 9.07%.

On to `CC(C)(C)CC(=O)Nc1nnc(C(F)(F)F)s1`, for which the “hERG current change (%, negative = inhibition) at 1uM” value worked out at 9.48%.

Take `Cc1ccc2oc(C(=O)Nc3ccc(S(=O)(=O)Nc4ncccn4)cc3)c(C)c2c1`: the “hERG current change (%, negative = inhibition) at 1uM” value amounted to 11.6%.

For the molecule `O=C(COC(=O)/C=C/c1ccco1)NCCc1ccccc1`, the “hERG current change (%, negative = inhibition) at 1uM” value stood at 6.5%.

Take `COc1ccc(S(=O)(=O)N2CCCCCC2)cc1C(=O)NCc1cccs1`: the “hERG current change (%, negative = inhibition) at 1uM” value is reported as -1.76%.

With `CCCCN1C(=O)NC(c2cccc([N+](=O)[O-])c2)C(C(=O)OCC)=C1C` (centres unmarked), the “hERG current change (%, negative = inhibition) at 1uM” value is on record as 8.07%.

As to `CCOc1ccc2[nH]c3c(NCCCOC)ncnc3c2c1`, the “hERG current change (%, negative = inhibition) at 1uM” value was 8.18%.

As to `CC(=O)c1cc(CN2CCC(N3CCC(C(=O)N4CCCC4)CC3)CC2)cs1`, the “hERG current change (%, negative = inhibition) at 1uM” value was 13.8%.

Take `CCCn1cc(S(=O)(=O)c2ccc(Cl)cc2)c(=O)c2cc(OC)ccc21`: the “hERG current change (%, negative = inhibition) at 1uM” value is listed as 3.39%.

For the molecule `O=C1c2ccccc2C(=O)C1c1ccc(O)cc1`, the “hERG current change (%, negative = inhibition) at 1uM” value worked out at 7.6%.

For `CCN(CC1CCCN(CCc2cccc(OC)c2)C1)C(=O)c1ccoc1C` (centres unmarked), the “hERG current change (%, negative = inhibition) at 1uM” value is -27.8%.

Take `COc1ccc(NC(=O)C2CCCN(S(=O)(=O)c3ccc4c(c3)oc(=O)n4C)C2)c(OC)c1` (centres unmarked): the “hERG current change (%, negative = inhibition) at 1uM” value is -5.18%.

For `CCCN(C(=O)c1ccc2c(SCC(=O)O)c3c(nc2c1)CCC3)c1cccc(C)c1`, the “hERG current change (%, negative = inhibition) at 1uM” value is listed as 13%.

For the molecule `NC(=O)CSc1ccc(S(=O)(=O)N2CCOCC2)cn1`, the “hERG current change (%, negative = inhibition) at 1uM” value is 8.71%.

For `CC(=O)NC(C)C(=O)OCC(=O)c1ccc(Cl)s1` (centres unmarked), the “hERG current change (%, negative = inhibition) at 1uM” value came out at 14.6%.

For the molecule `Nc1ccccc1C(=O)OCCc1ccccc1`, the “hERG current change (%, negative = inhibition) at 1uM” value was 9.92%.

Take `CC1(C)Cc2cccc(OCC(=O)N3CCN(c4cccc(C(F)(F)F)c4)CC3)c2O1`: the “hERG current change (%, negative = inhibition) at 1uM” value is on record as 8.43%.

As for `Cc1cc(C)nc(NNS(=O)(=O)c2ccc(F)c(Cl)c2)n1`, the “hERG current change (%, negative = inhibition) at 1uM” value is on record as 11.6%.

As for `COc1ccc(NC(=O)c2cccnc2NCCc2ccccc2)cc1`, the “hERG current change (%, negative = inhibition) at 1uM” value stood at 9.86%.

Consider `COc1ccccc1N1CCN(S(=O)(=O)c2ccc(Cl)cc2)CC1`, for which the “hERG current change (%, negative = inhibition) at 1uM” value worked out at 12.8%.

With `O=C(O)CC(CN1C(=O)c2ccccc2C1=O)c1ccccc1` (centres unmarked), the “hERG current change (%, negative = inhibition) at 1uM” value was 12.7%.

As for `COC(=O)c1c(NC(=O)CSc2ncnc3ccccc23)sc(C)c1C`, the “hERG current change (%, negative = inhibition) at 1uM” value was 2.87%.

For `CC(=O)N(OCc1ccc(OC(C)C)c(Cl)c1)C(C)=O`, the “hERG current change (%, negative = inhibition) at 1uM” value was 12.4%.

As for `NC(=O)COc1ccc(NC(=O)c2ccccc2-c2ccccc2)cc1`, the “hERG current change (%, negative = inhibition) at 1uM” value was 4.66%.

With `Cc1ccc(Nc2nc3ccc(Cl)cc3n3cnnc23)cc1F`, the “hERG current change (%, negative = inhibition) at 1uM” value was determined as 13.8%.

As to `CC(=O)c1sc(N2CCOCC2)nc1-c1ccccc1`, the “hERG current change (%, negative = inhibition) at 1uM” value turned out to be 8.54%.

Regarding `O=C(c1ccccc1)N1CCN(C(=O)c2ccccc2)CC1`, the “hERG current change (%, negative = inhibition) at 1uM” value was 5.75%.

Consider `COc1ccc(C2CC(=O)Oc3c(C(CCN4CCCCC4)c4ccc(N(C)C)cc4)c(OC)cc(OC)c32)cc1` (centres unmarked), for which the “hERG current change (%, negative = inhibition) at 1uM” value is given as 16.6%.

As to `COc1ccc(NC(c2ccccc2F)P(=O)(Oc2ccccc2)Oc2ccccc2)cc1` (centres unmarked), the “hERG current change (%, negative = inhibition) at 1uM” value is listed as 7.1%.

Turning to `COC(=O)Cc1c(C)nc2nc(-c3ccc(C)cc3)[nH]n2c1=O`, the “hERG current change (%, negative = inhibition) at 1uM” value was 16.2%.

On to `CCCc1nnc(SCC(=O)N2CCOCC2)n1CC1CCCO1` (centres unmarked), for which the “hERG current change (%, negative = inhibition) at 1uM” value is 17.5%.

On to `CC(=O)Nc1cc(C(F)(F)F)ccc1Oc1cccc(Br)c1`, for which the “hERG current change (%, negative = inhibition) at 1uM” value was 1.1%.

In the case of `Cc1ccc(-c2csc(NC(=O)COC(=O)c3cccc(S(=O)(=O)N4CCOCC4)c3)n2)cc1`, the “hERG current change (%, negative = inhibition) at 1uM” value is given as 10.1%.

Turning to `Cc1cc(N2C(=O)C(O)=C(C(=O)c3cccs3)C2c2cccc(O)c2)no1` (centres unmarked), the “hERG current change (%, negative = inhibition) at 1uM” value is reported as 12.5%.

Turning to `COc1ccc(CNc2ccc3c(c2)CCC3)cc1Br`, the “hERG current change (%, negative = inhibition) at 1uM” value is reported as 18.1%.
